# Experimental data: publication PMC10726135
# Some of the results follow. At the low end of the ranking the order means little. Measured with an extract: partners may take part in the binding.
# Target: T1, HNF4alpha8 (COS-7 nuclear extract) (UniProt P41235-5)
# T1 sequence: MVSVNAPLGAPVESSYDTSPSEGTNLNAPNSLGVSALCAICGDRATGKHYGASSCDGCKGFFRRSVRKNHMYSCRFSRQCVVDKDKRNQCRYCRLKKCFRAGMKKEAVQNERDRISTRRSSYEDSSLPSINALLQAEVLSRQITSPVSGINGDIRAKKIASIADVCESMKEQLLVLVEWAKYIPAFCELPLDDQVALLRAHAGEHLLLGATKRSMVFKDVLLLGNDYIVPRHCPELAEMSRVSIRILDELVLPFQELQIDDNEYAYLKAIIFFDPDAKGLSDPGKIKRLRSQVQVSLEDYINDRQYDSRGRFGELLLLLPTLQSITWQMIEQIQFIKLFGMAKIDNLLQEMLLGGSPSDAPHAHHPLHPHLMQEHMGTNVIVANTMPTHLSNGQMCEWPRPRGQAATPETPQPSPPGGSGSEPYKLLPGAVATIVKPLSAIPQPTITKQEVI
# Test: protein-binding microarray
# Conditions: COS-7 nuclear extract on double-stranded Agilent 4x180k PBM; binding buffer, salt, pH and temperature not given; high values mean tight binding; double strand, one strand shown; sequences stand for … in …GCCTAGGGAGATTAGAGTATCGGTCGA
row,Sequence,binding signal (log2 normalized intensity)
1,TTCTTGAGGCATTTATTACAGAGAGGGGGA,-1.27
2,CAATAGCAAAACCTGATGTTTGGACAGTGT,1.59
3,GACCAAGCAGCTGTTTGACCAAAGCTACTC,-1.31
4,AGTTAGTTTACTTAGGCCTCCCAGAACGTG,1.13
5,GCTATCCCGGCCAACGGTCGGAAGGGAGGT,-1.29
6,CTTGGACTTTAACCTTTAGATTACTAGGAA,6.61
7,GGGGCATAGCCCATGCAAATACTCGGTGAC,-1.25
8,GTATGCTATTAGTGGTTAAGTTTTCGAGGA,0.998
9,TCCAAGGAACCTCACGCGCTCCCTGTTTAG,-1.45
10,TCACCACATCTCCCACTGTGGACTCTGAGC,5.49
11,CCTGCGTCTTATATAAGCTATTACTTGATT,0.397
12,GGAACAACTTCGGGAATCTGACCTTTGGGA,5.65
13,GTGGCAGCATTGTGCTGAAAAGACTTCACA,-1.34
14,TGGGGAAGTCTCTAGATGGGGTTGAGCAGA,-1.36
15,CTGAGGTTAAAGTCCACATTCTTTAGCATA,6.12
16,TTTTCCCGGTTTGTTCCATGCCACAGAATC,0.811
17,TTCTCTGTGACCTTTGGAAGGTGGGGGAGG,4.92
18,TCTCAGGGAGTGCAAACTTCTTTGAAGAAG,0.467
19,CACCCCCCAAGTAGAGAGCAATTATGCACC,3.57
20,GGGACCTTGATGGCATTCTTGAGCTACCGC,-1.31
21,AGATATATCACCTGCCAGCTGTTATGAGTC,0.0406
22,CCCTATCCCCAGATTCCAGGGGAGGGTAAG,-1.31
23,CATCTAAGGACAAACTTTGTCACTGCAAAT,1.01
24,AACATGTAATCATTTGGGACAAAGTTCATC,4.93

row,Sequence,binding signal (log2 normalized intensity)
1,AGATGGTCAAAGGTTGATGGTATGTTTCAG,3.86
2,AGAAGCTGTTGGAAAGGGCACTGATAACCT,-1.27
3,TTAACTGAACCTAGATTCCAGGAAGAAAGA,-1.27
4,CGGCTGGGGATGAAGGGGGCGGGGGCGAAA,-1.1
5,CTGGGAGATGAGCTCTGAACTAACAATTCT,-1.28
6,CCTCGGCCGGCCCGGCAGCCCTGCTCCCCG,-1.37
7,ATTGTGTCATTGGTATCCACAGAGTTCATA,1.74
8,CCAGGGCATTGCCGTTCAGGGCCACGGGAA,-1.39
9,CTTAGACCCCTGAATAGGTCTTGGAATGTG,1.85
10,ACAAGGAAAACAAGGTACAGAGAGTTTAAG,-1.36
11,GGCTGATTTCTCAGGAAGTGCTTGTTCCCT,0.658
12,GGGTACACATGGCCGTAAAGATAAGAACGC,-1.4
13,TCCTTTTCATTCTTTAAGGACCACATCAAA,0.958
14,ACACATCTTCCATCGGACTTTGATCTGCCA,6.96
15,GCCTGGTCTGCACTCCAGGAAAGACGAGTG,0.837
16,GTCCTTCCCAAGTCCTGCATGTGTTCACAC,1.21
17,GCCCCACACTCCTGGGCTGTATGTTCTAAC,0.228
18,AGGAGGGATCTGGCAGGGGCGCGGCCTAAT,-1.1
19,GGACTTGGGACTCTGCAGACTGGTGCTATG,3.25
20,AATGATCTGACTCGGGTGTTCACAGGTGAC,0.776
21,ATCGGTCTTTACACATCTGTTAGGAATGTC,0.798
22,ACCTGAGGCCAAGCAGCTGTGATGAGGCCA,-1.39
23,CTAGCAAATCTGCCCAACCTTTGCCCCTGG,6.52
24,TTTGTCTCAGGAACTTTGTTTGTGTTTCCC,1.17

row,Sequence,binding signal (log2 normalized intensity)
1,TTCAGGGTTAAAAGTTCTGCTGAGTATCCA,0.669
2,TTGTACCCTTCTTTCCACCCTGTTGCACAA,1.99
3,GAGTAGAGGTGACTTACATGCAGAGATACT,-1.44
4,TTGACCATTGTGTTAAAGGAATTCAGGACT,0.91
5,GCAAAGTTCAACCCTGAATGTGTGCTGGCC,1.12
6,ATAAAGTTAAGACCTACATTAAGACCACCT,-1.31
7,ACATTTTTGTCATCTTCACTTTTGTGGCCT,1.95
8,TAACTGCTGCATGTCATGACCTTCATCAAT,2.63
9,AAACGCTGAAGTCTCAAAGTTCACCACTTT,3.3
10,GACTCCACAGTGGGGCAGATCACAAGCACC,-1.43
11,TCTCATTCACACCCTCAGCTGATGGGTCTC,0.876
12,GGTTTGCTCTGCTACTGACCAGATGTTATT,0.93
13,CTTGGGGCTGATGTCTTTCTGGCTGGAGAG,0.237
14,TTCCACCTGGAATGCACTTGTTCCGGATAG,0.694
15,CCCTTTCCTCATATTTTGCATACCAAGGGA,-0.00897
16,TGCACATTCCCTCCAGCAGGGGATGCCCTT,2.84
17,TCACAGCTATTGTATCTATCTCTATGTCCA,0.981
18,CCCAGTTAACTGGACAAGGAGGCTGGGCTG,-1.23
19,CAACAGGTATGCTCCAAAGATGATGCCTCA,-1.1
20,TTGTGCAAATGGAAAATTGTAATCTTCAGC,0.118
21,GGTGTGTTGCAACTTTGACTATAGCGTCTC,0.867
22,TCTCTGCTTGCAATTTTTGTTCAGTCATTG,0.587
23,GCAGTGTGGGGACCTGGACTCCCAAGATGG,0.0513
24,GAAGTTTGGCAATTACCCAACAGACTTTCC,-1.22

row,Sequence,binding signal (log2 normalized intensity)
1,CCAACAAGGCAGGAGATTCCACATTCCCTT,-1.32
2,ACCAAACCTGAAAAACCTCTCTCCAGGTAC,-1.1
3,CCCCCCTCACACTTTGGCTACTCAGTTTTT,1.37
4,TGAAGTTCCAGAGCCTTCAAAGGAAAGCAG,-0.981
5,GGACTGTCCTTTGCTAGATTCTTTCTTCCT,0.57
6,CACAGAAGTGGACCTTCACCAGATACTGAA,2.19
7,CCCAGATATCTCTGGTAAACAGCTGACAAT,-1.15
8,GTACCATTCATGGACAGCCTTGCCACATGG,-1.27
9,GACCAGGAGTTTGGGATCAGACACGTGGGA,0.0935
10,TAGCCACTGCATGATAGGCCCATCTTCTTA,-1.42
11,CAATACTAGCAATAACCACAAGGGGGGAGC,-1.2
12,CTCACAGGTTGTACTATGACCCAAACTTCA,4.38
13,TGCTCCCTCCTGTGGTAATAAGTTGGTGGA,1.32
14,CAAGGTAACCCCCAACATTCTTTCCAGCTT,1.37
15,AGTACAGCTTTTTGTTTGTGTAAGTGTGGG,1.89
16,TGCCCAGCTGCATCCTGTGCCTTGGTAGAG,-0.926
17,ATGCCTTGTCTAGTTAAGTGTTCAGCAAAT,0.962
18,GTGATAACCCCTATGTCTTCAGACTTCAAA,1.84
19,ATCAGGTTTCTCAAGTGATCGAAGGTCAAC,5.2
20,CTTCACACAAACATCACCTACCTGACTCCT,-1.29
21,AGCAATCTACTTTTCTTTTGGCATCTGTTG,1.46
